# In PubChem BioAssay AID463173 (ICCB-Longwood Screening Facility, Harvard Medical School, 2010):
# Hit rate of the full screen: of about 52,000 compounds, about 4,300 (8.3%) were called active. Cut-off read from the data, not from the text of the source: active = survival mostly below about 52% (no sharp cut-off); inactive = mostly above about 56%. This is one part of the list.
# System: DeltatarO mutant
# Test: growth inhibition of S. aureus wild type versus tarO mutant, primary screen, teichoic acid synthesis inhibitors, RN4220, OD600 (AID 463173)
# Conditions: OD600, 18 h, stronger effect = lower value, screened at 18.75 µg/mL (by protocol)
row,SMILES,survival
1,Cc1ccc(CNC(=O)C2CCCN(c3ncnc4onc(-c5ccc(F)cc5)c34)C2)cc1 (stereo not given),inactive: 85%
2,CC(C)(C)n1nnnc1C(c1cc2cc3c(cc2[nH]c1=O)OCO3)N(Cc1ccccc1)Cc1cccnc1 (stereo not given),inactive: 68%
3,O=C(Nc1ccccc1)c1ccc(F)cc1,inactive: 76%
4,CN1CC(=O)Nc2cc(C(=O)O)ccc21,inactive: 87%
5,COc1ccc(OC)c(NC(=O)Cn2c(=O)cc(C)c3c(C)nn(-c4cccc(Cl)c4C)c32)c1,inactive: 84%
6,O=C(CN1C(=O)CCSc2ccccc21)Nc1ccc(C(F)(F)F)cc1,inactive: 111%
7,CC1=C(C)CS(=NC(=O)c2ccccc2)N(C(=O)c2ccccc2)C1 (stereo not given),inactive: 79%
8,CCCNC(=O)N1CCCN(S(=O)(=O)c2ccc3c(ccn3CC)c2)CC1,inactive: 79%
9,CCCCOc1cccc(C(=O)N2CCN(CCc3ccncc3)CC2)c1,inactive: 55%
10,Cc1c(Cl)cccc1-c1ccc(/C=C(\C#N)c2nc3ccccc3[nH]2)o1,active: 13%
11,CCN(CC)c1ccc(NS(=O)(=O)c2cc(-c3cc(C)no3)ccc2C)c(C)c1,inactive: 122%
12,O=C(Nc1c[nH]c2cc(Cl)ccc2c1=O)N1CCCCC1,inactive: 102%
13,COc1ccc(N2CCN(C(=O)c3cnn(-c4ccc(OC)cc4)c3C3CCN(C(=O)OC(C)(C)C)CC3)CC2)cc1,inactive: 88%
14,COc1cc(C(=O)N2CCN(C(=O)COc3cccc(C)c3)CC2)cc(OC)c1OC,inactive: 80%
15,Cc1cccc(C(=O)N(Cc2ccccc2F)C2CCS(=O)(=O)C2)c1 (stereo not given),inactive: 76%
16,COc1ccc(Cc2nc3c4cnn(-c5cccc(F)c5)c4ncn3n2)cc1,inactive: 84%
17,COC(=O)c1c(NC(=O)COc2cccc(C(F)(F)F)c2)sc2c1CCCC2,inactive: 49%
18,N#CC1=C(N)c2ccccc2CC12CCCCC2,active: 31%
19,O=C(CSc1ccccn1)N1CCc2ccccc21,inactive: 86%
20,O=C(COc1ccc(Cl)cc1Cl)Nc1cccc2cccnc12,inactive: 79%
21,COC(=O)C1=C(C)NC(C)=C(C(=O)OC)C1c1cc2ccc(OC)cc2[nH]c1=O,inactive: 101%
22,Cc1c(C(=O)OC2CCCCCC2)[nH]c2c1C(=O)CC(c1ccc(Cl)cc1)C2 (stereo not given),inactive: 129%
23,Cc1ccc2c(c1)C(=O)OC(C(=O)Nc1ncc(Cc3ccc(Cl)cc3)s1)C2 (stereo not given),inactive: 87%
24,Cc1cccc(C)c1-n1ncc(C(=O)NC2CCCC2)c1C1CCN(C(=O)OC(C)(C)C)CC1,inactive: 94%
25,CCOc1ccc(NC(=O)NCc2cccn2Cc2ccccc2)cc1,inactive: 72%
